# Data published in ChEMBL document CHEMBL4888484, “Replenishing the malaria drug discovery pipeline: Screening and hit evaluation of the MMV Hit Generation Library 1 (HGL1) against asexual blood stage Plasmodium falciparum ,using a nano luciferase reporter read-out” (2022).
# The whole screen tested about 4,800 compounds, of which about 410 (8.5%) showed an effect of 50% or more. The list shows a part of the results.
# Test system: Plasmodium falciparum
# Assay: Confirmatory screen in NF54 pLDH assay, in single point, at 2uM, 72h
# Assay type: functional, Erythrocyte
# Settings: timepoint 72 hour
row,Compound,% Inhibition [%]
1,CN1CCC2C(CCN2C(=O)Nc2ccc(Cl)c(C(F)(F)F)c2)C1 (stereo not drawn),13
2,Cc1cc(C(=O)NCCCN2CCCC2=O)nn1C(F)F,-10
3,c1ccc(NC(Nc2nnn[nH]2)=C(c2ccccc2)c2ccccc2)cc1,4
4,COCCCn1c(NS(=O)(=O)c2ccccc2)c(S(=O)(=O)c2ccc(C)cc2)c2nc3ccccc3nc21,49
5,CC(C)(C)OC(=O)NCc1ccccc1O,10
6,O=C(CN1C=CCC=C1c1nc(-c2ccc(Br)cc2)cs1)c1ccccc1,46
7,CC(C)(C)OC(=O)N1CCC2(CC1)NN=C1C=C(N3CCN(c4ccccc4F)CC3)N=CN12,-14
8,CCN(CC(=O)Nc1ccc2c(c1)OCCO2)C(=O)CCc1c(C)noc1Cl,5
9,CC[C@H]1Cn2c(C(=O)NCc3ccc(C)o3)cc3cccc(c32)O1,-21
10,CC(=O)N1CCC2(CC1)NN=C1C=CC(c3nc(C(C)(C)C)no3)=CN12,9
11,O=S(=O)(c1ccccc1Br)N1CC[C@H]1c1ccccc1,1
12,CCN(C(C)=O)c1nc(CN2CCc3cc(C)cc(C)c3C2)cs1,11
13,Fc1ccc(Nc2nc(OC(C(F)(F)F)C(F)(F)F)nc(N3CCCCCC3)n2)cc1,0
14,CCn1c(=O)c(N2CCN(C(=O)Nc3ccc(F)cc3F)CC2)nc2ccccc21,8
15,COc1nc(-c2cccc(C(=O)NCC3CCOCC3)c2)ncc1F,80
16,C=CCN(CC=C)C(=O)COc1cc(C)c(C)nn1,8
17,COCC(=O)N[C@H]1CO[C@H]2[C@@H]1OC[C@@H]2Nc1nccc(-c2cccc(C#N)c2)n1,9
18,Cc1ccc(Cl)c2ccc(NC(=O)CCNC(N)=O)nc12,10
19,CC1(C)Cc2cc(S(=O)(=O)N[C@H]3CCC(=O)NC3(C)C)ccc2O1,-8
20,CC(C)(C)c1nc(Cn2c3c(sc2=O)CCCC3)no1,12
21,CCCOc1cc2nc(C(F)(F)F)cc(-c3cccs3)c2cc1OCCC,13

row,Compound,% Inhibition [%]
1,Cc1nc2ccccc2n1CCC(=O)N1CCN(Cc2ccc3c(c2)OCO3)CC1,14
2,CCC(C)(C)C(=O)N1CCC[C@@H]1CCc1ncc(C)n1C(C)C,14
3,Cc1ccc(C)c(C(=O)N2C[C@@H]3CN(C(=O)C4CCC4)C[C@]3(C(=O)O)C2)c1,8
4,CCn1cc(S(=O)(=O)N(C)Cc2nn(CC)cc2Cl)cn1,8
5,N#Cc1ccc(CNc2ccccc2OCC(F)F)o1,-18
6,N#Cc1c(CN(CCn2cccn2)Cc2cn3ccccc3c2C#N)cn2ccccc12,-22
7,CNc1nc(C)cc(C(=O)Nc2ccc(Cl)cc2NC(C)=O)n1,5
8,COc1cccc(NC(=O)Cn2c(C)ccc(NS(=O)(=O)c3ccc(C)cc3)c2=O)c1,59
9,CC(C)NC(=O)[C@H](C)N(C)Cc1nccn1CC(F)(F)F,8
10,O=C(CCc1ccc(Cl)c(C(F)(F)F)c1)N1CC[C@H](N2CCc3ccccc3C2)C1,45
11,O=C(CNc1cccc(C(F)(F)F)c1)OCC(=O)N1CCNC1=O,5
12,Cc1noc(C)c1CS(=O)(=O)CCC(=O)NC1CCCCC1,-6
13,CCCCC[C@H](C)NC(=O)CCC(=O)Nc1cccnc1,-17
14,Cc1ccc(S(=O)(=O)NCC2(CNS(=O)(=O)c3ccc(C)cc3)CN(S(=O)(=O)c3ccc(C)cc3)C2)cc1,6
15,CC(C)(CC(=O)O)CC(=O)Nc1ccc(Cc2nnc3ccccn23)cc1,12
16,O=C(NCCCc1ccccc1)[C@H]1CCCN(c2nc3ccccc3[nH]2)C1,-4
17,COCC1(C(=O)N2CCN(c3cncc4ccccc34)CC2)CCC1,7
18,COc1cccc(NC(=O)CN2CN(c3ccccc3)C3(CCN(C(=O)C[C@@H](C)CC(C)(C)C)CC3)C2=O)c1,3
19,O=C(O)c1cc(C=Cc2ccc3ncccc3c2)ncn1,11
20,C=CCOc1ccc(Cl)c(C(=O)N[C@H]2CCS(=O)(=O)C2)n1,3
21,O=C(C1CCCC1)N1CCN(S(=O)(=O)c2ccccc2)CC1,1

row,Compound,% Inhibition [%]
1,Cc1cncn1C1CCN(C(=O)C2(Cc3ccccc3)CC3CCC2C3)CC1 (stereo not drawn),-1
2,CN(Cc1ccccc1)c1nc2ncn(CC(=O)NC3CCCCC3)c(=O)c2s1,-13
3,COc1ccc(N2CCN(c3nccn4nc(-c5cccs5)cc34)CC2)cc1,12
4,CO[C@H]1c2ccccc2C(=O)N1C1CCCCCCCCCCC1,11
5,CCC(=O)Nc1nc2ccc(NS(=O)(=O)c3cccc4nsnc34)cc2s1,6
6,O=C(NCC(N1CCOCC1)C(F)(F)F)C1CC12CCOC2 (stereo not drawn),14
7,CC(NC(Cc1ccccc1)C(=O)N1CCCCC1)c1ccncc1 (stereo not drawn),-11
8,Cc1nn(C)c(NC(=O)CCc2c[nH]cn2)c1C,-7
9,COc1cccc(C(=O)Nc2noc(-c3cccc(OC)c3)c2-c2ccc(Cl)cc2)c1,-19
10,O=C(c1ccccc1F)N(Cc1nccn1Cc1c(F)cccc1Cl)C1CC1,-18
11,O=C(NC1CCOCC1)c1ccc(-c2ccc(F)c(F)c2F)cn1,10
12,COc1cc(N2CCn3c(nc4cc(Cl)ccc43)C2)ccc1NC(=O)C1CCCCC1,-13
13,CC(C)CS(=O)(=O)Nc1ccccc1C(N)=O,-4
14,COc1cccc(CNCCCN2CCOCC2)c1OCc1ccc(Cl)cc1Cl,12
15,Cc1nn(-c2ccccc2)c2c1[C@@H](c1ccc(C(F)(F)F)cc1)N(c1ccccc1)C(=O)N2,9
16,Cc1c(NC(=O)C(F)(F)[C@@]2(F)OC(F)(F)C(F)(F)C2(F)F)c(=O)n(-c2ccccc2)n1C,-16
17,CCOC(=O)N1CCN(c2nccn3nc(-c4ccc(OC)c(OC)c4)cc23)CC1,-12
18,C/C(=N\S(=O)(=O)c1ccc(Cl)cc1)Nc1cc(C(C)C)c(O)cc1C,0
19,O=C(O)c1ccc(N(C(=O)c2ccc3c(c2)OCO3)C(=O)c2ccc3c(c2)OCO3)cc1O,15
20,CCCCNC(=O)NCc1nc2ccccn2c1Cl,-14
21,COc1cccc(N2C(=O)N[C@H](C)C2=O)c1,15
